Publication PMC4336329 (PLoS ONE, 2015)
In all, about 310,000 compounds went through this assay and about 14,000 (4.5%) showed an effect of 50% or more. The effect is printed as a negative number. The list shows a part of the results.

Biological target: human ether-à-go-go-related gene (hERG) potassium channel (human, UniProt Q12809)
Experiment: primary screen, population patch clamp on CHO cells stably expressing hERG
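Also: peak tail current of the secondary pulse compared with the same well before compound.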

Chain of human ether-à-go-go-related gene (hERG) potassium channel (Q12809 whole entry, looked up): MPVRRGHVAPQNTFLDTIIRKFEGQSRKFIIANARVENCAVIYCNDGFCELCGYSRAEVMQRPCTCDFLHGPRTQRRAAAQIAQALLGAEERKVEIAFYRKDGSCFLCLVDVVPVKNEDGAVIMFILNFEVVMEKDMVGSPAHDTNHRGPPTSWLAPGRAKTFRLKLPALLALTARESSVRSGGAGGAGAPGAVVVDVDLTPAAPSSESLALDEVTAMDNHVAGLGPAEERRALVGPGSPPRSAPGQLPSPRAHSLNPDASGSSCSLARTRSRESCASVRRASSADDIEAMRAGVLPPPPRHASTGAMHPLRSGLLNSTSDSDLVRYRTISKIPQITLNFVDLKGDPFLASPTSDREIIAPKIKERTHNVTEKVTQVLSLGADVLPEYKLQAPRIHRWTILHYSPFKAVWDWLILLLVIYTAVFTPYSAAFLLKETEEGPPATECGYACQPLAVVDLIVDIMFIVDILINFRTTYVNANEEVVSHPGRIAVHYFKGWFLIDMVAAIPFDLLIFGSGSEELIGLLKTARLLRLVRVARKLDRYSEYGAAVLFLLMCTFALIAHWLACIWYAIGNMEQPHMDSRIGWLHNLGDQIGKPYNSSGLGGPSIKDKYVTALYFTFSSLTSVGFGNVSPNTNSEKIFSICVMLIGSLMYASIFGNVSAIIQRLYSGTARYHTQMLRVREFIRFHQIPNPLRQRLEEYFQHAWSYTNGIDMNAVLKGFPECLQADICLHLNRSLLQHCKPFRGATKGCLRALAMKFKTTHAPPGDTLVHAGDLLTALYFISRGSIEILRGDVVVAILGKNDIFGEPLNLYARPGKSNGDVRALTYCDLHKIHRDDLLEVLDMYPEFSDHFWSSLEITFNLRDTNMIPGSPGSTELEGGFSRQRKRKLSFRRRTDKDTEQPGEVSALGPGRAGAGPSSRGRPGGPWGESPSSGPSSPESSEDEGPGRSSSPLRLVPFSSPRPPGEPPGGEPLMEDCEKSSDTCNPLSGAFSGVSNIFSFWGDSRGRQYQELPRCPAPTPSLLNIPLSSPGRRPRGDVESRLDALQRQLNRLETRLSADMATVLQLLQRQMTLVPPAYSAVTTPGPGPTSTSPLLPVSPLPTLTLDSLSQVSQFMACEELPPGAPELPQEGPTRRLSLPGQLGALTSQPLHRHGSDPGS

| SMILES | hERG current change (%, negative = inhibition) at 10uM |
| --- | --- |
| Cc1ccccc1CN1CCN(c2ccc(Cl)cc2)CC1 | 7.72% |
| c1cc(CCCc2ccncc2)ccn1 | -18.5% |
| CN1CCC(N(C)S(=O)(=O)c2ccc(C(C)(C)C)cc2)CC1.Cl | -33.3% |
| COC(=O)CSc1nc2c(c(=O)n(C)c(=O)n2C)n1CCC(C)C | -5.54% |
| Cc1ccc(S(=O)(=O)c2nnn3c2nc(Nc2cccc(C)c2)c2ccccc23)cc1 | 17.2% |
| COc1ccc(N2CCN(C(=O)COc3ccccc3)CC2)cc1 | -20.6% |
| O=C(c1nc2ccc(Cl)cn2c1CNCCc1cnccn1)N1CCCCCCC1 | -8.1% |
| Cl.O=S(=O)(c1ccccc1)N(CC(O)CN1CCCCC1)c1ccccc1 (centres unmarked) | -53.2% |
| Oc1[nH]c2ccccc2c1/C=N/c1nccs1 | 4.65% |
| CN1CCN(C(=O)/C(=C/c2cccs2)NC(=O)c2ccco2)CC1 | -70.5% |
| O=S(=O)(c1ccc(S(=O)(=O)N2CCCC2)cc1)N1CCCCCC1 | 7.43% |
| Cc1cc(C)n(C(=O)c2cccc(S(=O)(=O)N3CCOCC3)c2)n1 | 8.76% |
| CSCC[C@H](NC(=O)NCCC1=CCCCC1)C(=O)O | -13.8% |
| COc1ccc2nc(NC(=O)CS(=O)(=O)c3ccc(C)cc3)sc2c1 | 12.6% |
| Cc1ccccc1NC(=O)c1ccc(Cl)c(NC(=O)c2ccncc2)c1 | -32.1% |
| CC(C)(C)OC(=O)NCc1ccc(CNC(=O)c2[nH]cnc2C(=O)NC2CCN(C(=O)OC(C)(C)C)CC2)cc1 | -2.61% |
| O=C(Nc1nc(-c2ccccn2)cs1)c1ccco1 | -6.74% |
| CN1CCN(CCC(=O)N/N=C/c2cc([N+](=O)[O-])ccc2O)CC1 | 1.18% |
| S=C(Nc1ccc(Cl)cc1Cl)Nc1ccccc1Oc1ccccc1 | 13.6% |
| CCN(CC)c1nc2c(c(=O)n(C)c(=O)n2C)n1CC(=O)c1ccccc1 | -14.9% |
| CC(C)OC(=O)CSc1nnc(-c2ccccc2)n1N | 9.92% |
| COC(=O)CN(c1cccc(F)c1)S(C)(=O)=O | -11.3% |

| SMILES | hERG current change (%, negative = inhibition) at 10uM |
| --- | --- |
| CC1(C)Cc2ccccc2C(NNC(=O)c2ccncc2)=N1 | 18.5% |
| COc1cccc(NC(=S)NNC(=O)CCn2cc([N+](=O)[O-])cn2)c1 | -2.61% |
| COC(=O)c1cc2sccc2n1Cc1nc(-c2ccc(OC)cc2)oc1C | -6.52% |
| COc1ccc(C)cc1N(CC(=O)NCCSCc1cccc(Cl)c1)S(C)(=O)=O | -10.7% |
| COC(=O)c1sccc1NC(=O)Cn1nnc(-c2ccc(C)cc2)n1 | 0.599% |
| CCOc1cc(C(=O)NC(=S)Nc2cccnc2)cc(OCC)c1OCC | -36.4% |
| CCOc1ccc(CCNC(=O)C2CCCN(S(=O)(=O)N3CCOCC3)C2)cc1OCC (centres unmarked) | 0.332% |
| Cc1ccc(NC(=O)C(C)N2C(=O)c3ccccc3S2(=O)=O)cc1Cl (centres unmarked) | 13.8% |
| O=C(O)Cn1cc(C(=O)c2cccs2)c2ccccc21 | 8.08% |
| CNC[C@H](CC1CCCCC1)NC[C@H](CO)NCCc1cccc(C(F)(F)F)c1 | -13.5% |
| C/C(CC1CC(C)(C)OC1=O)=N/Nc1nc(-c2ccccc2)cs1 (centres unmarked) | -0.0742% |
| COC(=O)c1ccc(NC(=O)COC(=O)COc2cccc3c2OC(C)(C)C3)cc1 | 7.85% |
| CC(=O)c1cc(CN2CCC(C(=O)Nc3ccc(-n4nc(C)cc4C)cc3)CC2)cs1 | -15.7% |
| CC(=O)N1Cc2cc(N)ccc2Oc2ccccc21 | 9.9% |
| COc1cccc(N2CCN(C(=O)c3ccc(CS(=O)c4ccccc4C)o3)CC2)c1 (centres unmarked) | -4.71% |
| Cc1nn(-c2ccccc2)c2sc(C(=O)n3cccn3)cc12 | 1.81% |
| COc1ccccc1OCCC(=O)OCC(=O)NC(C)c1ccccc1 (centres unmarked) | 4.92% |
| N#CCC(=O)N1CC2(CC(c3cccc(NC(=O)COc4ccc(Cl)cc4)c3)=NO2)C[C@@H]1C(N)=O (some centres unmarked) | -2.55% |
| O=C(CCSc1ccccc1)NC(=O)COC(=O)c1ccc(OC(F)F)cc1 | 2.09% |
| Cn1nc(C(=O)NCc2ccco2)c2ccccc2c1=O | 5.4% |
| Cc1ccc(NC(=S)NCc2ccc(F)cc2)c(C)c1 | -2.46% |
| CC(=O)c1cccc(NC(=S)N2CCN(S(=O)(=O)c3ccc(F)cc3)CC2)c1 | -2.13% |
